Experimental data reported in the supplement of paper PMC9446081.
Out of some 39,000 compounds screened, about 220 (0.56%) showed activity. The list shows a part of the results.

What follows are molecules tested on Escherichia coli K-12 BW25113 (assay: relative growth (OD600 normalised to plate interquartile mean) (fraction); higher = less growth inhibition, active = 0.2 or less). Conditions: 50 µM; LB; incubation time: overnight (16-24 h).
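Note: static incubation at 37 °C against the wild-type strain, values averaged over two biological replicates.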

Structure (SMILES)	relative growth
COc1cc2c(cc1O)CCNC2C (stereo not given)	inactive: 1.15
O=C(NCc1ccccc1)[C@H]1C[C@H]2CNC[C@H]1O2	inactive: 1.03
C[C@@H]1CC[C@@]2(OC1)O[C@H]1C[C@H]3[C@@H]4CC=C5C[C@@H](O[C@@H]6O[C@H](CO)[C@@H](O[C@@H]7O[C@@H](C)[C@H](O)[C@@H](O)[C@H]7O)[C@H](O)[C@H]6O[C@@H]6O[C@@H](C)[C@H](O)[C@@H](O)[C@H]6O)CC[C@]5(C)[C@H]4CC[C@]3(C)[C@H]1[C@@H]2C	inactive: 0.913
c1nc(N2CCN3CCC[C@H]3C2)c2[nH]cnc2n1	inactive: 0.977
CCOC1OC2OC3(C)CCC4C(C)CCC(C1C)C24OO3 (stereo not given)	inactive: 1.09
CNC(=O)CSP(=S)(OC)OC	inactive: 1.07
CNC(=O)CN1CCOCC12CCN(c1cc(OC)ncn1)CC2	inactive: 1.02
CNC(=O)[C@@H]1COC[C@@H]2CN(CC(C)C)C[C@@H]21	inactive: 1
COCCCNC(=O)[C@]1(Cc2ccccc2N=[N+]=[N-])N=C(c2ccc(OCCCO)cc2)O[C@@H]1c1ccccc1N=[N+]=[N-]	inactive: 0.96
CC(C)(C)[C@]1(O)C[C@@H]2OC(=O)C[C@]23C(=O)O[C@@H]2OC(=O)[C@H](O)[C@]231	inactive: 0.998
[N-]=[N+]=NCC(=O)Nc1ccon1	inactive: 0.986
CC(C)N(CCC(C(N)=O)(c1ccccc1)c1ccccn1)C(C)C.O=P(O)(O)O (stereo not given)	inactive: 0.992
Cc1ccc(C2(CN)CCCCC2)cc1	inactive: 0.924
COc1ccc(C2(CN)CCOCC2)cc1	inactive: 1.02
Cc1o[nH]c(=O)c1C[C@H](N)C(=O)O	inactive: 0.995
O=C([C@H]1CCCO1)N1CCCN2CCC[C@H]2C1	inactive: 0.999
C[C@]12CC[C@H](Cl)C[C@@H]1CC[C@@H]1[C@@H]2CC[C@]2(C)C(=O)CC[C@@H]12	inactive: 1
CC(C)C[C@@H]1C(=O)N2CCC[C@@H]2[C@]2(O)O[C@@](NC(=O)[C@@H]3C=C4c5cccc6[nH]c(Br)c(c56)C[C@@H]4N(C)C3)(C(C)C)C(=O)N12	inactive: 1.02
NCCNC[C@@H](N)CCCNC(N)=N[N+](=O)[O-].O=CC(F)(F)F	inactive: 1.02
Cc1nnc([C@H]2CCCNC2)o1	inactive: 0.969
C[C@@H]1CN([C@@H](C)CO)C(=O)CCCn2nncc2CO[C@H]1CN(C)C(=O)Oc1cccc2ccccc12	inactive: 1
CCC1CN2CCc3cc(OC)c(OC)cc3C2CC1CC1NCCc2cc(OC)c(OC)cc21.Cl.Cl (stereo not given)	inactive: 1.19

Structure (SMILES)	relative growth
CCNC(=O)[C@H]1O[C@@H](n2cnc3c(N)ncnc32)[C@H](O)[C@@H]1O	inactive: 0.996
NCCc1c[nH]c2ccc(C(N)=O)cc12	inactive: 0.999
O=C(O)C=CCO	inactive: 0.994
O=C(O)C(Cl)Cl	inactive: 1.01
C1CC2(CCN1)OCCO2	inactive: 1.02
C=CCc1ccc2c(c1)OCO2	inactive: 1.08
COP(=O)(OC)C(O)C(Cl)(Cl)Cl (stereo not given)	inactive: 0.874
O=C1NC(=S)NC(=O)C1c1ccccc1	inactive: 0.959
O=[N+]([O-])c1ccc2c3c(cccc13)CC2	inactive: 0.979
N[C@@]1(C(=O)O)CC[C@H](C(=O)O)C1	inactive: 0.999
COc1ccc(C[C@@H](N)c2ccc(C)cn2)cc1OC	inactive: 0.941
NC(=N[N+](=O)[O-])NCCC[C@H](N)C(=O)O	inactive: 0.98
CP(=O)(O)C1=CCNCC1	inactive: 1.01
O=C1NC(=O)C(C2(O)C(=O)c3ccccc3C2=O)C(=O)N1	inactive: 0.908
Cc1ccc(OC(=O)N(C)C[C@@H]2OCc3ccccc3-c3c(n(C)c4ccccc34)C(=O)N([C@@H](C)CO)C[C@H]2C)cc1	inactive: 1.04
N#CC(c1ccccc1)c1ccccc1	inactive: 0.939
O=c1n(Cl)c(=O)n(Cl)c(=O)n1Cl	inactive: 0.843
Cc1ccc2cc3c(ccc4ccccc43)c3c2c1CC3	inactive: 1.02
O=C(NC(=O)c1c(F)cccc1F)Nc1cc(Cl)c(OC(F)(F)[C@@H](F)C(F)(F)F)cc1Cl	inactive: 1.01
ClC1C(Cl)C(Cl)C(Cl)C(Cl)C1Cl (stereo not given)	inactive: 1.03
Cc1cccc(C)c1NC(=O)CN1CCCC1=O	inactive: 1.02
CCC1(c2ccccc2)C(=O)NC(=O)NC1=O	inactive: 1.03

Structure (SMILES)	relative growth
CC[C@@H](C)C(=O)O[C@H]1[C@H](O)[C@H]2[C@@H](CN3C[C@@H](C)CC[C@@H]3[C@@]2(C)O)[C@H]2C[C@]34O[C@]5(O)[C@@H](OC(=O)[C@@](C)(O)[C@@H](C)O)CC[C@@]3(C)[C@@H]5[C@@H](OC(C)=O)[C@@H](OC(C)=O)[C@@H]4[C@@]21O	inactive: 1.02
C[C@H](CO)N1C[C@H](C)[C@@H](CN(C)C(=O)Oc2cccc3ccccc23)OCc2cnnn2CCCC1=O	inactive: 1.01
COC(=O)[C@]1(Cc2ccccc2CN=[N+]=[N-])N=C(c2ccc(OCCCO)cc2)O[C@@H]1c1ccccc1N=[N+]=[N-]	inactive: 1.04
O=c1[nH]c(=O)n(Cl)c(=O)n1Cl	inactive: 0.971
N#C[C@H](O[C@@H]1O[C@H](CO)[C@@H](O)[C@H](O)[C@H]1O)c1ccc(O)cc1	inactive: 1.01
CCN(C)C(=O)Oc1cccc(C(C)N(C)C)c1.O=C(O)C(O)C(O)C(=O)O (stereo not given)	inactive: 0.922
N[C@@H](CO)Cc1ccccc1	inactive: 0.996
COP(=O)(OC)OC=C(Cl)Cl	inactive: 1.01
COc1cccc(C2(N)CCCC2)c1	inactive: 1.02
S=C=NCc1ccccc1	inactive: 0.603
CC(=O)O[C@H]1C[C@H](O[C@H]2[C@@H](O)C[C@H](O[C@H]3[C@@H](O)C[C@H](O[C@H]4CC[C@@]5(C)[C@@H](CC[C@H]6[C@@H]5C[C@@H](O)[C@]5(C)[C@@H](C7=CC(=O)OC7)CC[C@]65O)C4)O[C@@H]3C)O[C@@H]2C)O[C@H](C)[C@H]1O[C@@H]1O[C@H](CO)[C@@H](O)[C@H](O)[C@H]1O	inactive: 0.986
O=c1cccc2n1C[C@@H]1C[C@H]2CN(C[C@H](O)/C=N/n2cnnc2)C1	inactive: 0.993
C[C@]12CC[C@@H]3c4ccc(OC(=O)N(CCCl)CCCl)cc4CC[C@H]3[C@@H]1CC[C@@H]2OP(=O)(O)O	inactive: 1.02
CC[C@@H](C(=O)[C@@H](C)[C@@H](O)[C@H](C)[C@@H]1O[C@@H]([C@@H](CC)C(=O)O)CC[C@@H]1C)[C@H]1O[C@]2(C=C[C@@H](O)[C@]3(CC[C@@](C)([C@H]4CC[C@](O)(CC)[C@H](C)O4)O3)O2)[C@H](C)C[C@@H]1C	inactive: 0.909
CS(=O)(=O)N1CCO[C@]2(COCCN(Cc3ccncc3)C2)C1	inactive: 0.898
C[C@@H]1NC[C@@H]2CCCN2C1=O	inactive: 0.956
Cn1ccnc1C(=O)N[C@H]1CN[C@@H]2CCCO[C@@H]12	inactive: 1.03
CO[C@H]1[C@@H](O)[C@@H](C)O[C@H](O[C@H]2CC[C@@]3(C)[C@H]4CC[C@@]5(C)[C@@H](C6=CC(=O)OC6)CC[C@]5(O)[C@@H]4CC[C@]3(O)C2)[C@@H]1O	inactive: 0.989
C=CCC1(C(C)CCC)C(=O)N=C([S-])NC1=O.[Na+] (stereo not given)	inactive: 1.03
CCN(Cc1ccc(Cl)nc1)C(=C[N+](=O)[O-])NC	inactive: 0.954
O=[N+]([O-])C(Br)(CO)CO	active: 0.0475
NCCc1nccs1	inactive: 0.991

Structure (SMILES)	relative growth
CCOC(=O)C1C(C=C(C)C)C1(C)C (stereo not given)	inactive: 1.07
CC(C)(C)c1ccc(O)cc1	inactive: 0.998
[N-]=[N+]=Nc1ccccc1C[C@]1(C(N)=O)N=C(c2ccc(OCCCO)cc2)O[C@H]1c1ccccc1N=[N+]=[N-]	inactive: 1.03
COCC(=O)N1[C@@H]2Cn3c(ccc(C4=CCCC4)c3=O)[C@H]1[C@@H](C(=O)OC)[C@@H]2CO	inactive: 1.01
CN(C)C(=O)[C@]1(Cc2ccccc2CN=[N+]=[N-])N=C(c2ccc(OCCCO)cc2)O[C@@H]1c1ccccc1N=[N+]=[N-]	inactive: 1.02
CC=C(C)C(=O)OC1CCC2(C)C3CCC4C5(O)CC(O)C6(O)C(CN7CC(C)CCC7C6(C)O)C5(O)CC42OC13O.Cl (stereo not given)	inactive: 1.07
CN(C)C(=O)Oc1cccc([N+](C)(C)C)c1.[Br-]	inactive: 1.19
C=CCOC(=O)[C@@H]1[C@H](C(=O)OC)N(C)[C@@H](c2ccccc2)[C@]12C(=O)Nc1ccc(I)cc12	inactive: 1.04
CC(=O)c1c(O)c(C)c(O)c(Cc2c(O)c3c(c(C(=O)/C=C/c4ccccc4)c2O)OC(C)(C)C=C3)c1O	inactive: 0.958
CC(=O)N1CCCC[C@]12CCNC2	inactive: 0.984
N[C@@H]1C[C@H]1c1ccccc1	inactive: 1.01
CCN1C[C@H]2C[C@H](C(=O)NCC3CC3)[C@@H](C1)O2	inactive: 0.983
NC[C@@H](CC(=O)O)c1ccccc1	inactive: 1.01
CNc1ccccc1C(=O)O	inactive: 0.802
NCCc1ccc([N+](=O)[O-])cc1	inactive: 1.03
C1COC2(CN1)CNC2	inactive: 0.981
ClC(Cl)=C(c1ccc(Cl)cc1)c1ccc(Cl)cc1	inactive: 1.01
Cl.O=C1CCC2(O)C3Cc4ccc(O)c5c4C2(CCN3CC2CC2)C1O5 (stereo not given)	inactive: 1.03
CCCCCCCCCC(=O)O[C@@H]1[C@@H](C)[C@@]2(O)[C@@H](C=C(CO)C[C@]3(O)C(=O)C(C)=C[C@@H]23)[C@@H]2C(C)(C)[C@]12OC(=O)CCCCCCCCC	inactive: 1.03
